No constants are given. Whether binding was seen depends on the method and setting. For part of these data: In cells and extracts the contact can be indirect. Some entries that bind do so weakly or less than the wild type. For part of these data: Where a sequence is shown, tags or fusion partners need not be part of it.
Columns and labels:
[1] = molecular target: T1, pCEFL-GST-GIV-CT (1660–1870), mammalian expression (UniProt Q3V6T2); experiment: pull-down; GST-GIV-CT (aa 1660–1870, pCEFL) pulled down with glutathione beads from lysates of HEK293T cells co-expressing it with WT or mutant HA-NOD2; immunoblotting with anti-HA and anti-GST
T1 sequence: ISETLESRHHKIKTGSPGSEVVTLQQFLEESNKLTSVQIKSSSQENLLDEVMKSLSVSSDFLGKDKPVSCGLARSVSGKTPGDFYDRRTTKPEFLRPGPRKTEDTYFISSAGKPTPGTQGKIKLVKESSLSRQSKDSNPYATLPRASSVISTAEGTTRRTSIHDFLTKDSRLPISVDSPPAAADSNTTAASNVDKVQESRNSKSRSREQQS

Chains of the proteins cited; added tags and fusions are not shown. Lines headed by an entry give the natural chain unless they say otherwise; changes in a name come on top. Residues count along the entry.
UniProt Q9HC29: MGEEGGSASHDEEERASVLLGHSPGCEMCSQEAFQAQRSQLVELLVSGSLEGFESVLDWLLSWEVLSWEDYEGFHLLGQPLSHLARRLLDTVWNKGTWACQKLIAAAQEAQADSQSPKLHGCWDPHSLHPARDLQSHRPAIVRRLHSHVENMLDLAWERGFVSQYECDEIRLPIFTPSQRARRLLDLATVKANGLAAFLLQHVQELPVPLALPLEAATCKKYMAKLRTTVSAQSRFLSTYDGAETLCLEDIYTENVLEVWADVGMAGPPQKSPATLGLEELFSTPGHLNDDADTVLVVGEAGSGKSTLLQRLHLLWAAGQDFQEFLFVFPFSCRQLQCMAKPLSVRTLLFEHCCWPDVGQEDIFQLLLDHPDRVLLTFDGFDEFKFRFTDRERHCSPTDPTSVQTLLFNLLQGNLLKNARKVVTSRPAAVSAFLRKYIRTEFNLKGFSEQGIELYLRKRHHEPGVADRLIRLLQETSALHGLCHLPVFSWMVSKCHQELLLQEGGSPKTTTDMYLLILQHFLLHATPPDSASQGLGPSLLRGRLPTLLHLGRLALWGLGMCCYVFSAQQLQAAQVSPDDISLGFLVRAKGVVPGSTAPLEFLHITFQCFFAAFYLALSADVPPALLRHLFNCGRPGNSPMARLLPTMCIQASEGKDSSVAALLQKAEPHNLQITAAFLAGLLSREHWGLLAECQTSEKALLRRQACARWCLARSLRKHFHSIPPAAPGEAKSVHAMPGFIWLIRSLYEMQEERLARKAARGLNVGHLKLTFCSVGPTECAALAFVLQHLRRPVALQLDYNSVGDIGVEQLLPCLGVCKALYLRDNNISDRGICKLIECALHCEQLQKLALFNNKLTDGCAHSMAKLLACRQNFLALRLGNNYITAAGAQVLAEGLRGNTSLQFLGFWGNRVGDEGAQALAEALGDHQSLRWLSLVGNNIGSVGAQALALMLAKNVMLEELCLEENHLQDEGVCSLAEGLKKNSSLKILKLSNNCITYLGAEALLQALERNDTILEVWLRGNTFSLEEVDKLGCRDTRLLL
GST-NOD2-LRR (pGEX-6P-2-NOD2-LRR, aa 744–1040): residues 744-1040 of Q9HC29
GST-NOD2-LRR-delΔ (pGEX-6P-2-NOD2-LRR-delΔ, aa 744–1006): residues 744-1006 of Q9HC29

[2] = molecular target: GIV-FLAG (CMV14-p3X FLAG-GIV WT, full length) (UniProt Q3V6T2); experiment: co-IP; HEK293T cells co-expressing GIV-FLAG and HA-NOD2 (or its variants, or HA-NOD1), with or without 10 μg/ml MDP for 1, 3 and 6 h; anti-HA mAb or anti-FLAG M2 and protein G Sepharose, 4°C; immunoblotting
[3] = molecular target: GST-NOD2-LRR (pGEX-6P-2-NOD2-LRR, aa 744–1040) (human) (UniProt Q9HC29); experiment: pull-down; purified GST-NOD2-LRR proteins immobilised on glutathione Sepharose beads, incubated with purified His-GIV-CT in binding buffer (50 mM Tris-HCl pH 7.4, 100 mM NaCl, 0.4% Nonidet P-40, 10 mM MgCl2, 5 mM EDTA, 2 mM DTT), 4 h at 4°C; both purified
[4] = molecular target: GST-NOD2-LRR-delΔ (pGEX-6P-2-NOD2-LRR-delΔ, aa 744–1006) (human) (UniProt Q9HC29); experiment: as above

“HA-tagged NOD2-G908R (from UniProt Q9HC29 1-1040)” was tested, and the binding [1] was “binds”.

With “HA-tagged NOD2-R702W (from UniProt Q9HC29 1-1040)” the binding [1] was “no binding”.

For “HA-tagged NOD2-WT (from UniProt Q9HC29 1-1040)”, the binding [1] was “binds” and the binding [2] was “binds”.

B1: His-GIV-CT (aa 1660–1870) (pET-28b-GIV-CT-WT) (domain or fragment, UniProt Q3V6T2 1660-1870)
chain: ISETLESRHHKIKTGSPGSEVVTLQQFLEESNKLTSVQIKSSSQENLLDEVMKSLSVSSDFLGKDKPVSCGLARSVSGKTPGDFYDRRTTKPEFLRPGPRKTEDTYFISSAGKPTPGTQGKIKLVKESSLSRQSKDSNPYATLPRASSVISTAEGTTRRTSIHDFLTKDSRLPISVDSPPAAADSNTTAASNVDKVQESRNSKSRSREQQS
In the case of B1, the binding [3] is reported as “binds” and the binding [4] is reported as “no binding”.

— doi:10.1101/2025.01.21.634180
